# This is one part of the list.
# B1: PhoQ; a variant is named by its letters at X, in order, P23837 (parent)
# chain: MKKLLRLFFPLSLRVRFLLATAAVVLVLSLAYGMVALIGYSVSFDKTTFRLLRGESNLFYTLAKWENNKLHVELPENIDKQSPTMTLIYDENGQLLWAQRDVPWLMKMIQPDWLKSNGFHEIEADVNDTSLLLSGDHSIQQQLQEVREDDDDAEMTHSVAVNVYPATSRMPKLTIVVVDTIPVELKSSYMVWSWFIYVLSANLLLVIPLLWVAAWWSLRPIEALAKEVRELEEHNRELLNPATTRELTSLVRNLNRLLKSERERYDKYRTTLTDLTHSLKTPLXXLQXXLRSLRSEKMSVSDAEPVMLEQISRISQQIGYYLHRASMRGGTLLSRELHPVAPLLDNLTSALNKVYQRKGVNISLDISPEISFVGEQNDFVEVMGNVLDNACKYCLEFVEISARQTDEHLYIVVEDDGPGIPLSKREVIFDRGQRVDTLRPGQGVGLAVAREITEQYEGKIVAGESMLGGARMEVIFGRQHSAPKDE
# Variants of: B1
# Assay: enrichment ratio after two sorts for PhoP signalling (ratio (wild type AVST 3.29)); higher = more functional
# Details: with PhoP (E. coli)
row,Variant,enrichment ratio
1,NTSR,≤ 0.25
2,NYIK,≤ 0.25
3,DCRI,≤ 0.25
4,VWWF,≤ 0.25
5,YECY,0.863
6,RKTQ,≤ 0.25
7,FGLI,7.83
8,KTNV,≤ 0.25
9,IDFA,≤ 0.25
10,EYLK,≤ 0.25
11,AQDD,≤ 0.25
12,LFGH,≤ 0.25
13,EYRK,≤ 0.25
14,RCAL,≤ 0.25
15,ERIK,≤ 0.25
16,HRWD,≤ 0.25
17,SFHT,≤ 0.25
18,FDNE,≤ 0.25
19,TWPK,0.57
20,HTND,≤ 0.25
21,QNNW,≤ 0.25
22,GYNN,≤ 0.25
23,IYWH,≤ 0.25
24,DCWT,≤ 0.25

row,Variant,enrichment ratio
1,FIPH,≤ 0.25
2,LFLG,≤ 0.25
3,QTGP,≤ 0.25
4,VEVY,≤ 0.25
5,FWLE,≤ 0.25
6,VHFY,≤ 0.25
7,WEQY,≤ 0.25
8,FEIQ,1.57
9,PNAI,≤ 0.25
10,GLGG,≤ 0.25
11,VMAF,≤ 0.25
12,SFVT,≤ 0.25
13,HDWN,≤ 0.25
14,FSIN,≤ 0.25
15,AIAT,19.3
16,GLGI,0.662
17,VWFD,≤ 0.25
18,AFHK,≤ 0.25
19,LVRN,≤ 0.25
20,AHEN,≤ 0.25
21,PIDE,≤ 0.25
22,PLSG,≤ 0.25
23,DCST,≤ 0.25
24,GKPD,≤ 0.25

row,Variant,enrichment ratio
1,HRLM,≤ 0.25
2,GDVD,≤ 0.25
3,ANQA,≤ 0.25
4,IDSN,≤ 0.25
5,HIVL,0.399
6,HIGL,≤ 0.25
7,QRAC,≤ 0.25
8,TGPN,2.28
9,HVKP,≤ 0.25
10,AFVN,≤ 0.25
11,PWNG,≤ 0.25
12,PNMR,≤ 0.25
13,TDLH,11.1
14,GRQS,≤ 0.25
15,SNGC,10.7
16,SSKQ,≤ 0.25
17,VDKP,≤ 0.25
18,MHMF,≤ 0.25
19,QLPR,≤ 0.25
20,IIVA,≤ 0.25
21,ENMP,≤ 0.25
22,DEHF,≤ 0.25
23,SDFP,≤ 0.25
24,MCTR,≤ 0.25

row,Variant,enrichment ratio
1,IPYH,≤ 0.25
2,MNYW,≤ 0.25
3,IQGA,≤ 0.25
4,QASN,11.4
5,TGGW,≤ 0.25
6,RSAL,≤ 0.25
7,MYRH,≤ 0.25
8,DNFP,≤ 0.25
9,LWVI,≤ 0.25
10,IGTE,≤ 0.25
11,DPPR,≤ 0.25
12,GNFF,≤ 0.25
13,WPRD,≤ 0.25
14,EYWL,≤ 0.25
15,PPDN,≤ 0.25
16,VGIV,≤ 0.25
17,YGDR,≤ 0.25
18,MLVH,≤ 0.25
19,ATQL,0.667
20,ANNG,≤ 0.25
21,RKAN,≤ 0.25
22,CIVH,≤ 0.25
23,MKTR,≤ 0.25
24,TSAD,2.17

row,Variant,enrichment ratio
1,EGHA,≤ 0.25
2,HEAF,≤ 0.25
3,ISTA,≤ 0.25
4,TAEV,≤ 0.25
5,YKNM,≤ 0.25
6,TYIK,≤ 0.25
7,SDRY,≤ 0.25
8,HDFI,≤ 0.25
9,FCFW,≤ 0.25
10,MIAI,6.65
11,THFG,≤ 0.25
12,DFAF,≤ 0.25
13,FAQL,≤ 0.25
14,TGTS,10.1
15,SNGS,9.33
16,SVHK,≤ 0.25
17,GNEP,≤ 0.25
18,KCQH,≤ 0.25
19,TAQI,23.7
20,YRQK,≤ 0.25
21,DHRA,≤ 0.25
22,PPLI,≤ 0.25
23,KPPV,≤ 0.25
24,LWWQ,≤ 0.25

row,Variant,enrichment ratio
1,NWYK,≤ 0.25
2,FDPP,≤ 0.25
3,MTWA,≤ 0.25
4,IRVV,≤ 0.25
5,EGHI,≤ 0.25
6,WGMS,≤ 0.25
7,SAPE,≤ 0.25
8,VFQL,≤ 0.25
9,RGYS,≤ 0.25
10,PRLY,≤ 0.25
11,SDMY,≤ 0.25
12,EEGI,≤ 0.25
13,RTFT,0.297
14,EGNE,≤ 0.25
15,FYNP,≤ 0.25
16,IAQV,≤ 0.25
17,KQMF,≤ 0.25
18,MCFN,4.25
19,WTFR,≤ 0.25
20,PCAW,≤ 0.25
21,QSMT,≤ 0.25
22,LSPV,≤ 0.25
23,SNWE,≤ 0.25
24,YASV,0.284

row,Variant,enrichment ratio
1,KNAM,≤ 0.25
2,FKYT,≤ 0.25
3,SMLW,≤ 0.25
4,RYQD,≤ 0.25
5,KGWQ,≤ 0.25
6,GWYC,≤ 0.25
7,FSDW,≤ 0.25
8,PFFT,≤ 0.25
9,KQRV,≤ 0.25
10,PQWK,≤ 0.25
11,DQVT,≤ 0.25
12,WHVL,≤ 0.25
13,WNMI,≤ 0.25
14,KRCS,2.43
15,TGDT,≤ 0.25
16,RWSH,≤ 0.25
17,IRQA,≤ 0.25
18,QCEW,≤ 0.25
19,AQFG,≤ 0.25
20,IAWI,≤ 0.25
21,TICI,2.26
22,LPKA,≤ 0.25
23,YSAF,≤ 0.25
24,RNFN,≤ 0.25

row,Variant,enrichment ratio
1,SYVH,≤ 0.25
2,TNAS,13.9
3,ETEG,≤ 0.25
4,KYVP,≤ 0.25
5,KIDI,≤ 0.25
6,FEMY,≤ 0.25
7,DSTD,≤ 0.25
8,IDFF,≤ 0.25
9,RLCA,≤ 0.25
10,AMVA,≤ 0.25
11,GVVI,≤ 0.25
12,SPGN,≤ 0.25
13,TICL,1.53
14,FCVR,≤ 0.25
15,TRLS,6.8
16,NFSH,≤ 0.25
17,GDRA,≤ 0.25
18,LENK,≤ 0.25
19,YTEF,≤ 0.25
20,RANN,≤ 0.25
21,YHGA,≤ 0.25
22,HQAP,≤ 0.25
23,DFRA,≤ 0.25
24,VHLT,≤ 0.25

row,Variant,enrichment ratio
1,GWHW,≤ 0.25
2,ASYH,0.342
3,SQIV,5.01
4,WELV,2.4
5,YKYW,≤ 0.25
6,QGMI,19.9
7,MDNP,≤ 0.25
8,THTW,≤ 0.25
9,YQYE,≤ 0.25
10,WKES,≤ 0.25
11,YFSD,≤ 0.25
12,MASF,2.55
13,PITK,≤ 0.25
14,LYKR,≤ 0.25
15,VQTK,≤ 0.25
16,IPAW,≤ 0.25
17,RGDQ,≤ 0.25
18,NYGT,≤ 0.25
19,RHCV,≤ 0.25
20,YIHR,≤ 0.25
21,VDGG,≤ 0.25
22,HTMR,≤ 0.25
23,KHNN,≤ 0.25
24,LDMK,≤ 0.25

row,Variant,enrichment ratio
1,IMKY,≤ 0.25
2,WEYG,≤ 0.25
3,ACIK,≤ 0.25
4,NQGG,≤ 0.25
5,TTKH,≤ 0.25
6,PQDY,≤ 0.25
7,GESD,≤ 0.25
8,HSEN,≤ 0.25
9,PCIP,≤ 0.25
10,AFDY,≤ 0.25
11,MENK,≤ 0.25
12,WQGC,≤ 0.25
13,TSWY,14.1
14,IIVQ,≤ 0.25
15,SCCK,14.3
16,WPMK,≤ 0.25
17,MHCS,≤ 0.25
18,IPAQ,≤ 0.25
19,VGWS,≤ 0.25
20,DCVG,≤ 0.25
21,FAST,≤ 0.25
22,FTFT,≤ 0.25
23,FTQN,≤ 0.25
24,HNSR,≤ 0.25

row,Variant,enrichment ratio
1,TVWS,1.2
2,TLVL,≤ 0.25
3,KTTI,≤ 0.25
4,WNWQ,≤ 0.25
5,VWPF,≤ 0.25
6,NFCE,≤ 0.25
7,DLTY,≤ 0.25
8,WIRL,≤ 0.25
9,TDLW,≤ 0.25
10,WQTD,≤ 0.25
11,MIAV,11.2
12,WQNL,≤ 0.25
13,RSDS,≤ 0.25
14,DSPI,≤ 0.25
15,FIKC,≤ 0.25
16,VPRN,≤ 0.25
17,KDFP,≤ 0.25
18,NGAQ,≤ 0.25
19,TMLL,1.48
20,RCWK,≤ 0.25
21,PRFP,≤ 0.25
22,VRIN,≤ 0.25
23,MMHF,≤ 0.25
24,NVFG,≤ 0.25

row,Variant,enrichment ratio
1,KGHG,≤ 0.25
2,IYCE,≤ 0.25
3,SIIC,≤ 0.25
4,AITW,6.06
5,QDFP,≤ 0.25
6,IRKI,≤ 0.25
7,REYK,≤ 0.25
8,TMPP,≤ 0.25
9,PCMQ,≤ 0.25
10,LSYD,≤ 0.25
11,YFVA,≤ 0.25
12,IFNA,≤ 0.25
13,QHRN,≤ 0.25
14,YWQN,≤ 0.25
15,FQMD,≤ 0.25
16,NEMP,≤ 0.25
17,TRIK,≤ 0.25
18,SIMV,13.6
19,HSMQ,9.41
20,RNMD,≤ 0.25
21,EYKD,≤ 0.25
22,PSFR,≤ 0.25
23,NQHS,≤ 0.25
24,IAGI,≤ 0.25

row,Variant,enrichment ratio
1,IRSI,≤ 0.25
2,AQHC,≤ 0.25
3,GYLC,0.277
4,RMDQ,≤ 0.25
5,GTHQ,≤ 0.25
6,PESE,≤ 0.25
7,IGGH,≤ 0.25
8,LRPK,≤ 0.25
9,IDTK,≤ 0.25
10,DHDK,≤ 0.25
11,LYRD,≤ 0.25
12,SESS,13.9
13,GKHG,≤ 0.25
14,MLMW,≤ 0.25
15,RNTG,≤ 0.25
16,GRFS,≤ 0.25
17,MMVQ,≤ 0.25
18,QIVG,≤ 0.25

# Source: a collection of fitness landscapes (doi:10.1126/science.1257360)
